Assay results as given in PubChem BioAssay AID686978 (National Center for Advancing Translational Sciences (NCATS), 2013).
The whole screen tested about 420,000 compounds, of which about 64,000 (15%) were called active. This list was built around the results that the source calls inconclusive (neither active nor inactive); the mix of calls is not that of the screen. The call rests on the fitted dose curve; in most records, active means well fitted inhibition curve with a large enough effect; inconclusive means small, poorly fitted or top-dose-only effect; inactive means flat fitted curve, though single readings scatter. No potency is given beside an inconclusive call; the fits are too rough.

assay: qHTS for Inhibitors of human tyrosyl-DNA phosphodiesterase 1 (TDP1): qHTS in cells in absence of CPT; details: DT40 Tdp1-/- hTDP1 cells, no CPT, ATP luminescence, 48 h; activity change, negative = growth inhibition: at 46.2 µM (top of the series) unless noted; further: nearly all actives have a fitted effect of over 55% in size
Method in brief: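 Chicken DT40 Tdp1-/- cells stably complemented with human TDP1 were seeded at 400 cells/well with DMSO in place of 20 nM camptothecin. After compound pinning, cells grew at least 48 hr at 37 °C; viability read by CellTiter-Glo luminescence.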
On the % scale 0 is the no-effect control and ±100 the full control effect; potency means the concentration at half of the fitted maximal effect; tags describe the fitted curve by direction and shape.

Q: With `CN(CC(=O)N1CCc2ccccc2C1)S(=O)(=O)c1ccc2c(c1)c(=O)n(C)c(=O)n2C` as the compound, how does the Potency read?
A: inconclusive [inhibitor, single point]

Q: Which Potency does the source give for `COc1cc(OC)c2ccc(=O)oc2c1C(CC(=O)N1CCN(c2ccccc2)CC1)c1ccc2c(c1)OCO2` (stereo not given) here?
A: inconclusive [inhibitor, single point]

Q: With `COc1ccc(NC(=O)c2cc(-c3cc(C)cc(C)c3O)n[nH]2)cc1Cl` as the compound, how does the Potency read?
A: inconclusive [inhibitor, single point]

Q: Which Potency does the source give for `COc1cc(/C=N/Nc2nc3ccccc3[nH]2)ccc1O` here?
A: active: 4.61 µM

Q: For `CCCCC(=O)N/N=C/c1sccc1C`, which Potency is on record?
A: inactive

Q: With `CCc1ccc(S(=O)(=O)NCC(O)COc2ccc(OC)cc2)cc1` (stereo not given) as the compound, how does the Potency read?
A: inconclusive [inhibitor, full curve, poor fit]

Q: For `COC(=O)CNC(=O)C1CC(=O)N(CCc2ccc(F)cc2)C1` (stereo not given), which Potency is on record?
A: inactive

Q: Which Potency does the source give for `C=CCn1c(C)nc2c(sc3nc4c(cc32)COC(C)(C)C4)c1=O` here?
A: inconclusive [inhibitor, single point]

Q: Which Potency does the source give for `CN(CC(=O)NCc1ccc2c(c1)OCO2)S(=O)(=O)c1ccc(Cl)cc1` here?
A: inconclusive [inhibitor, single point]

Q: Which Potency does the source give for `CC(Sc1nc(N)cc(N)n1)C(=O)NCC1CCCO1` (stereo not given) here?
A: inactive

Q: With `CCOC(=O)[C@H]1[C@H]2COc3ccc(OC)cc3[C@@H]2N2C(=O)CN(Cc3ccc(C)cc3)C(=O)[C@@]12C` as the compound, how does the Potency read?
A: inconclusive [inhibitor, partial curve]

Q: For `COc1ccccc1N1C(=N)S/C(=C\c2ccc(-c3ccccc3C(=O)O)o2)C1=O`, which Potency is on record?
A: inactive

Q: For `O=S(=O)(Nc1ccc(Br)cc1)c1ccc2nc(-c3ccccc3)[nH]c2c1`, which Potency is on record?
A: inconclusive [inhibitor, single point]

Q: Which Potency does the source give for `Cc1ccc(CCNC(=O)CN2CCN(Cc3ccc(Cl)cc3)C2=O)cc1` here?
A: inconclusive [inhibitor, single point]

Q: With `COc1ccc(OC)c(NC(=O)c2ccccc2N(C)S(=O)(=O)c2ccc(C)cc2)c1` as the compound, how does the Potency read?
A: inconclusive [inhibitor, single point]

Q: Which Potency does the source give for `Cc1ccc(S(=O)(=O)Nc2ccc3c(c2)c(C(=O)OC(C)C)c(C)n3S(=O)(=O)c2ccc(C)cc2)cc1` here?
A: inconclusive [inhibitor, single point]

Q: Which Potency does the source give for `Cc1ccc2nc(Nc3nc(C)cc(C(F)(F)F)n3)nc(C)c2c1` here?
A: inconclusive [inhibitor, partial curve]

Q: Which Potency does the source give for `CC(=O)c1ccc(NC(=O)c2ccc(CN3C(=O)CCn4nc(C)cc43)cc2)cc1` here?
A: inactive

Q: With `O=C(Nc1ccccc1Br)N1CCN2CCCCC2C1` (stereo not given) as the compound, how does the Potency read?
A: inactive

Q: Which Potency does the source give for `CC(C)n1nc(C(=O)OCC(=O)c2c[nH]c3ccccc23)c2ccccc2c1=O` here?
A: inconclusive [inhibitor, single point]

Q: Which Potency does the source give for `COc1ccccc1N=c1scc(-c2ccc3c(c2)NC(=O)CO3)n1CC1CCCO1` (stereo not given) here?
A: active: 18.4 µM

Q: With `O=[N+]([O-])c1ccc(C(S(=O)(=O)Cc2ccccc2)S(=O)(=O)Cc2ccccc2)cc1` as the compound, how does the Potency read?
A: active: 18.4 µM

Q: Which Potency does the source give for `CCc1ccc(NC(=O)Cn2nnc(C(=O)Nc3cc(C)ccc3OC)c2N)cc1` here?
A: inactive

Q: With `CCCC(=O)Nc1cc(C(=O)N(C)CC(OC)OC)ccc1S(=O)(=O)c1ccc(C)cc1` as the compound, how does the Potency read?
A: inactive

Q: Which activity change, negative = growth inhibition does the source give for `Cc1cc(=O)oc2cc(NS(=O)(=O)c3ccc(F)cc3)ccc12` here?
A: inconclusive: -33.7% [inhibitor]

Q: For `CN(C)C(=O)c1cccc(-c2cnc3c(NC=O)cc(-c4cccc(F)c4)cn23)c1`, which Potency is on record?
A: active: 14.6 µM

Q: With `COc1ccccc1C(=O)COC(=O)c1cccc(-n2cnnn2)c1` as the compound, how does the Potency read?
A: inconclusive [inhibitor, single point]

Q: For `CC(C)(C)c1ccc(-n2ncc3c2CCCC3NC(=O)CCn2cncn2)cc1` (stereo not given), which Potency is on record?
A: inconclusive [inhibitor, single point]

Q: For `CCSc1nnc(C(C)NS(=O)(=O)c2cccc(Cl)c2C)n1C` (stereo not given), which Potency is on record?
A: inactive

Q: Which Potency does the source give for `NC1CCN(c2cccc(Cl)n2)CC1` here?
A: inconclusive [inhibitor, single point]

Q: For `Cc1c(Cl)cnc(NC(=O)COC(=O)c2cccc(S(=O)(=O)N3c4ccccc4CC3C)c2)c1Cl` (stereo not given), which Potency is on record?
A: inconclusive [inhibitor, single point]

Q: Which Potency does the source give for `CCN(CC)c1ccc(NC(=O)CC2Oc3ccccc3NC2=O)c(C)c1` (stereo not given) here?
A: inconclusive [inhibitor, single point]

Q: Which Potency does the source give for `CCOc1nc(NCCC2=CCCCC2)nc(N2CCOCC2)n1` here?
A: inconclusive [inhibitor, partial curve]

Q: For `COc1ccc(NC(=O)/C(Cl)=C(/Cl)S(=O)Cc2ccccc2)cn1` (stereo not given), which Potency is on record?
A: active: 0.0184 µM

Q: For `CC(C)(C)S(=O)(=O)N1C[C@@H]2CC/C=C\C/C=C\2[C@H]1CCO`, which Potency is on record?
A: active: 8.2 µM

Q: Which Potency does the source give for `Cc1ccc(NC(=O)CCNS(=O)(=O)c2ccc3c(c2)CCC(=O)N3)cc1F` here?
A: inconclusive [inhibitor, single point]

Q: With `C/C(=N\NC(=O)c1c(C)nc2ccccn12)c1ccc(N2CCOCC2)cc1` as the compound, how does the Potency read?
A: inactive

Q: With `COc1cc(NC(=O)Nc2nc(C(N)C(C)C)cs2)cc(OC)c1OC` (stereo not given) as the compound, how does the Potency read?
A: inconclusive [inhibitor, single point]

Q: With `COc1ccc(NC(=O)C2CCC(CNc3c(N4CCCCC4)c(=O)c3=O)CC2)c(OC)c1` (stereo not given) as the compound, how does the Potency read?
A: inactive

Q: With `CC(CCc1ccccc1)NC(=O)COC(=O)C(CCC(N)=O)NC(=O)c1ccc(F)cc1` (stereo not given) as the compound, how does the Potency read?
A: inactive

Q: Which Potency does the source give for `Cc1ccc(N2C(=O)C3C4C=CC(CNC(=S)Nc5ccc(F)cc5)(O4)C3C2=O)cc1` (stereo not given) here?
A: active: 18.4 µM

Q: Which Potency does the source give for `COc1cc(C(=S)N2CCCC2)ccc1OC(=O)c1ccc(Cl)cc1[N+](=O)[O-]` here?
A: inconclusive [inhibitor, single point]

Q: For `COc1ccc(OCC(O)CNC2CCCC2)cc1` (stereo not given), which activity change, negative = growth inhibition is on record?
A: inconclusive: -36% [inhibitor]

Q: For `CC(C)(C)OC(=O)NCCc1nnc(SCC(=O)c2ccc(Cl)cc2)o1`, which Potency is on record?
A: inconclusive [inhibitor, single point]

Q: For `CN1C(=O)C(C)(C)c2cc(S(=O)(=O)NCc3ccc(C(=O)NCc4ccco4)cc3)ccc21`, which Potency is on record?
A: inconclusive [inhibitor, partial curve]
